Experimental findings from the supplement of paper PMC4967469 are described below.

Lines with a small IC50 respond at low doses; fits outside the tested doses are given as limits. AUC, from the same fit, is the share of area under the viability curve across the 256-fold dose range; it is 1 without any effect and falls as sensitivity rises. An entry number marks a drug with two screens in the source, which often give different values.

Compound in the test: CS(=O)(=O)N1CCN(Cc2cc3nc(-c4cccc5[nH]ncc45)nc(N4CCOCC4)c3s2)CC1 [GDC0941]
The experiment in a line: Viability of human cancer cell lines after 72 h of drug (GDSC screen). The settings on record: screen: GDSC drug entry 1058. The protocol:
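Human cancer cell lines in 384-well plates, medium with 10% serum, drug for 72 h over a 256-fold dose range (nine 2-fold or five 4-fold steps up to the top dose). Adherent lines were fixed and stained with the nucleic acid dye Syto60, suspension lines read with resazurin; signal relative to control wells, capped at 0 and 100%. One two-parameter sigmoid per drug and line, fitted in a mixed model over all curves with the slope shared within a line.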
As to “RH-1 (rhabdomyosarcoma, adherent, top dose 4 µM)”, the AUC was determined as 0.968 and the IC50 (commonly the concentration at which inhibition is half-maximal) was more than 4000 nM.

In the case of “RH-18 (rhabdomyosarcoma, adherent, top dose 4 µM)”, the AUC turned out to be 0.864 and the IC50 was more than 4000 nM.

Take RKN (ovary, adherent, top dose 4 µM): the AUC was found to be 0.7 and the half-maximal inhibitory concentration (IC50) came to 946 nM.

As to “RL (B-cell lymphoma, suspension, top dose 4 µM)”, the AUC is 0.961 and the IC50 was more than 4000 nM.

On to “RO82-W-1 (thyroid, adherent, top dose 4 µM)”, for which the AUC came to 0.803 and the IC50 stood at 2660 nM.

Consider “ROS-50 (B-cell leukaemia, suspension, top dose 4 µM)”, for which the AUC amounted to 0.976 and the IC50 was more than 4000 nM.

For the cell line “RPMI-2650 (head and neck, adherent, top dose 4 µM)”, the AUC was 0.817 and the IC50 worked out at 2460 nM.

With “RPMI-6666 (Hodgkin lymphoma, suspension, top dose 4 µM)”, the AUC is 0.686 and the IC50 turned out to be 926 nM.

In the case of “RPMI-7951 (melanoma, adherent, top dose 4 µM)”, the AUC came out at 0.8 and the IC50 stood at 1860 nM.

Consider “RPMI-8402 (T-cell lymphoblastic leukaemia, suspension, top dose 4 µM)”, for which the AUC is 0.571 and the IC50 was determined as 378 nM.

As for “RPMI-8866 (chronic myeloid leukaemia, suspension, top dose 4 µM)”, the AUC came out at 0.444 and the IC50 came to 178 nM.

“RS4-11 (leukaemia, suspension, top dose 4 µM)”: the AUC turned out to be 0.36 and the half-inhibitory concentration (IC50) is 107 nM.

RT4 (bladder, adherent, top dose 4 µM): the AUC came out at 0.987 and the IC50 was more than 4000 nM.

With “RVH-421 (melanoma, adherent, top dose 4 µM)”, the AUC was 0.9 and the IC50 is more than 4000 nM.

With “RXF393 (kidney, adherent, top dose 4 µM)”, the AUC stood at 0.781 and the IC50 turned out to be 2380 nM.

Regarding “Raji (Burkitt lymphoma, suspension, top dose 4 µM)”, the AUC stood at 0.974 and the IC50 was more than 4000 nM.

As for “Ramos-2G6-4C10 (Burkitt lymphoma, suspension, top dose 4 µM)”, the AUC was 0.568 and the 50% inhibitory concentration (IC50) worked out at 372 nM.

Consider “SAS (head and neck, adherent, top dose 4 µM)”, for which the AUC turned out to be 0.91 and the half-maximal inhibitory concentration (IC50) was more than 4000 nM.

Turning to “SAT (head and neck, adherent, top dose 4 µM)”, the AUC is 0.584 and the IC50 was found to be 480 nM.

Take “SBC-1 (small cell lung carcinoma, suspension, top dose 4 µM)”: the AUC was determined as 0.901 and the IC50 was more than 4000 nM.

In the case of “SBC-3 (small cell lung carcinoma, adherent, top dose 4 µM)”, the AUC worked out at 0.881 and the IC50 amounted to 3520 nM.

For the cell line “SBC-5 (small cell lung carcinoma, adherent, top dose 4 µM)”, the AUC amounted to 0.924 and the half-inhibitory concentration (IC50) was more than 4000 nM.

In the case of “SCC90 (head and neck, adherent, top dose 4 µM)”, the AUC turned out to be 0.885 and the IC50 was more than 4000 nM.

Consider “SCC-9 (head and neck, adherent, top dose 4 µM)”, for which the AUC came to 0.946 and the 50% inhibitory concentration (IC50) was more than 4000 nM.

Turning to “SCC-15 (head and neck, adherent, top dose 4 µM)”, the AUC is 0.962 and the IC50 was more than 4000 nM.

On to “SCC-25 (head and neck, adherent, top dose 4 µM)”, for which the AUC stood at 0.697 and the IC50 stood at 970 nM.

For SCH (stomach, adherent, top dose 4 µM), the AUC was found to be 0.906 and the IC50 is more than 4000 nM.

Regarding SF126 (glioma, adherent, top dose 4 µM), the AUC came to 0.793 and the IC50 worked out at 1940 nM.

SF268 (glioma, adherent, top dose 4 µM): the AUC was 0.893 and the IC50 was more than 4000 nM.

As for SF295 (glioma, adherent, top dose 4 µM), the AUC was determined as 0.805 and the IC50 worked out at 2220 nM.

SF539 (glioma, adherent, top dose 4 µM): the AUC is 0.912 and the IC50 was more than 4000 nM.

For “SH-4 (melanoma, adherent, top dose 4 µM)”, the AUC is 0.901 and the IC50 is more than 4000 nM.

For “SHP-77 (small cell lung carcinoma, semi-adherent, top dose 4 µM)”, the AUC turned out to be 0.992 and the IC50 is more than 4000 nM.

With “SIMA (neuroblastoma, adherent, top dose 4 µM)”, the AUC was found to be 0.882 and the IC50 is more than 4000 nM.

For the cell line SISO (cervix, adherent, top dose 4 µM), the AUC is 0.805 and the IC50 was found to be 1920 nM.

As to “SJRH30 (rhabdomyosarcoma, adherent, top dose 4 µM)”, the AUC was determined as 0.886 and the IC50 is more than 4000 nM.

On to SJSA-1 (bone, adherent, top dose 4 µM), for which the AUC worked out at 0.798 and the IC50 amounted to 2190 nM.

As to “SK-CO-1 (large intestine, adherent, top dose 4 µM)”, the AUC amounted to 0.782 and the IC50 is 1570 nM.

As to “SK-ES-1 (Ewing sarcoma, semi-adherent, top dose 4 µM)”, the AUC was found to be 0.511 and the half-maximal inhibitory concentration (IC50) is 268 nM.

For “SK-GT-2 (stomach, adherent, top dose 4 µM)”, the AUC came to 0.773 and the 50% inhibitory concentration (IC50) is 1630 nM.

With “SK-GT-4 (oesophagus, adherent, top dose 4 µM)”, the AUC stood at 0.644 and the IC50 was found to be 693 nM.

Regarding “SK-HEP-1 (liver, adherent, top dose 4 µM)”, the AUC came out at 0.988 and the IC50 was more than 4000 nM.

With “SK-LMS-1 (soft tissue, adherent, top dose 4 µM)”, the AUC was determined as 0.648 and the IC50 is 627 nM.

Regarding “SK-LU-1 (lung adenocarcinoma, adherent, top dose 4 µM)”, the AUC came out at 0.803 and the half-inhibitory concentration (IC50) is 2650 nM.

Take “SK-MEL-1 (melanoma, suspension, top dose 4 µM)”: the AUC stood at 0.993 and the IC50 was more than 4000 nM.

In the case of “SK-MEL-2 (melanoma, adherent, top dose 4 µM)”, the AUC was 0.866 and the IC50 was 3790 nM.

For the cell line “SK-MEL-3 (melanoma, adherent, top dose 4 µM)”, the AUC amounted to 0.911 and the half-maximal inhibitory concentration (IC50) was more than 4000 nM.

In the case of “SK-MEL-5 (melanoma, adherent, top dose 4 µM)”, the AUC worked out at 0.781 and the IC50 is 2050 nM.

“SK-MEL-28 (melanoma, adherent, top dose 2 µM)”: the AUC was 0.821 and the half-maximal inhibitory concentration (IC50) was determined as 1130 nM.

In the case of “SK-MEL-31 (melanoma, adherent, top dose 4 µM)”, the AUC is 0.915 and the IC50 was more than 4000 nM.
